# Screen size: about 150,000 compounds; about 540 (0.36%) showed an effect of 50% or more. The list shows a part of the results.
# Test system: Plasmodium falciparum
# Assay: Primary screen in NF54 nanoGlo assay, in single point, at 2uM, 72h; a lower Z score goes with more inhibition
# Assay type: functional, Erythrocyte
# Conditions: timepoint 72 hour
Compound,% Inhibition,Z score
COc1cc2c(cc1C(=O)N(C)Cc1nnc3n1CCOCC3)OCO2,-7%,1.25
CC(=O)N(C)CCc1noc(-c2cc(-c3ccccc3)no2)n1,-21%,3.02
Cn1c(N)c(-c2c(-c3ccc(Cl)s3)[nH]c3c2c(=O)n(C)c(=O)n3C)c(=O)n(C)c1=O,34%,-3.88
O=C([C@@H]1COc2cc(S(=O)(=O)N3CCN(Cc4ccccc4)CC3)ccc2O1)N1CCCCCC1,-25%,4.83
C[C@]1(C(=O)NCc2cncc(O)c2)C[C@@H]1c1ccccc1,-2%,0.31
[O-][n+]1ccc(-c2ccc(Cl)cc2)nc1,-13%,2.44
COCCCNC(=O)C1CCN(c2c(C)n(-c3ccccc3)c(=O)n(CC(C)C)c2=O)CC1,31%,-0.45
Cc1cc(C)n2cc(CN3CC[C@@H](C(N)=O)c4ccccc43)nc2n1,-1%,0.14
CC(C)S(=O)(=O)CC(=O)N1CC(n2cc(-c3ccccc3)nn2)C1,-10%,1.69
O=C(CCn1cccn1)NCC1CCCC1,3%,-0.43
CN(C[C@H]1COc2ccccc2O1)C(=O)c1cc2ccccc2[nH]1,0%,-0.06
COCC(=O)Nc1ccccc1N(C)C,-8%,0.8
CN(C(=O)c1ccccc1)C1CC2CCC(C1)N2C(=O)Cc1ccoc1 (stereo not drawn),21%,-2.69
COc1ccc(-c2ccc(C)c(C(F)(F)F)c2)cc1Cc1nnn[nH]1,-9%,1.78
CC1CCCC(OCC(=O)NCCc2nncn2C(C)C)C1 (stereo not drawn),2%,-0.18
Cn1cnc2cc(C(=O)Nc3nc(-c4ccccc4)cs3)cnc21,23%,-3.71
O=C(Cc1cccc(O)c1)Nc1ccc2oc(C3CC3)nc2c1,-10%,1.33
NC(=O)C(Cc1ccccc1)NC(=O)C1CC12CCCc1ccccc12 (stereo not drawn),-14%,1.93
CCc1csc(NC(=O)N(C)C[C@H](C)C(=O)NC)n1,1%,-0.17
Clc1ccc2c(c1)C1OCCC1C(c1ccccc1)N2 (stereo not drawn),-2%,0.43
Cc1nc(N)ccc1-c1ccc(C(=O)NCCCN2CCC[C@H](O)C2)cc1,4%,-0.49

Compound,% Inhibition,Z score
O=C(c1cccs1)N1CCC(Cc2nnc(-c3ccccc3)o2)CC1,-15%,2.8
COc1ccccc1-c1[nH]c2c(c1[C@H]1C(=O)Nc3ccccc31)c(=O)n(C)c(=O)n2C,8%,-0.83
Cc1nc2c(-c3ccc(Cl)cc3)cnn2c2c1CCC2,-8%,1.44
COc1cc(=O)c(C(=O)N2CCCCCC2)nn1-c1ccc(F)c(F)c1,36%,-1.02
O=C(Cc1ccc(C2CCC2)cc1)NCc1nnc2n1CCNC2=O,-7%,1.44
Cc1noc(C)c1CN1C[C@@H]2Oc3cc(F)ccc3C(=O)N(C)[C@@H]2C1,91%,-10.61
c1ccc(-c2ncn(CCc3c[nH]cn3)c2-c2cccc3nonc23)cc1,7%,-1.19
COc1cc(C)cc(OC)c1-c1n[nH]c(C(=O)N(C)C)n1,-7%,0.95
CCO[C@H]1CCCN(c2cc(Br)cc(F)c2C(N)=O)C1,17%,-2.42
CC(C)Oc1ccc([C@@H](CCNCc2ccco2)C2CCCCC2)cc1,-5%,0.78
C[C@H](O)C1CCN(S(=O)(=O)CCC2CC2)CC1,-1%,0.06
COc1cccc(N2CCN(C(=O)c3cc(-c4ccccn4)no3)CC2)c1,2%,-0.18
CC(=O)N[C@H]1C[C@H](c2cc(NCc3ccc4c(c3)OCO4)ncn2)C1,-11%,1.88
O=C(COc1ccc(Cl)cc1)N1CC[C@@H](c2cccs2)S(=O)(=O)CC1,-8%,1.43
O=C(C(=Cc1ccccc1)c1ccc(Cl)cc1)N1CCN(Cc2ccccc2)CC1,-9%,1.21
CC[C@H](C)CN(C)C(=O)NCCc1nccn1C(F)F,-2%,0.25
COc1ccc(-c2noc(CN3CCC(C(=O)N(C)c4cc(C)ccc4OC)CC3)n2)cc1OC,3%,-0.45
CCO[C@H]1CN(C(=O)CCn2nc(C)c(C(C)=O)c2C)C[C@@H]1O,-8%,1.32
Cc1cc(C(=O)N2CCCN(S(C)(=O)=O)[C@H]3CCC[C@H]3C(=O)NCC2)no1,-8%,1.19
Cc1nnc(Cc2ccc(-n3ccnc3-c3ccnc4ccccc34)cc2)[nH]1,-5%,0.94
O=C(COC[C@H]1CCCCO1)NCCc1cn[nH]c1,3%,-0.46

Compound,% Inhibition,Z score
Cc1cccc2c1N(C1CC1)CCN2C(=O)c1ccc(CS(C)(=O)=O)o1,-6%,0.68
CCOC(=O)c1ccccc1S(=O)(=O)Oc1cc(Cl)ccc1-c1nc2ncccc2o1,-24%,2.44
CC(C)(C)c1cc(CN2CC[C@](C)(O)[C@@H](O)C2)n[nH]1,-11%,2.11
CC[C@H](OC1CCCC1)C(=O)Nc1cccnc1C,-14%,1.23
CCCNC(=O)[C@H](C)NC(=O)Nc1ccc(F)cc1,-3%,0.44
CC(C)(C)OC(=O)N1CCC2(CCCN(C(=O)c3cnc(-c4ccoc4)s3)C2)CC1,-17%,1.61
CN(C)CC[C@H]1CCCCN1C(=O)c1cnc(C2CC2)nc1,-9%,1.15
CC(C)C(=O)N1CCC(NC(=O)C(C#N)c2nc3ccccc3s2)C1 (stereo not drawn),3%,-0.47
COc1ccccc1C(=O)Nc1ccc(S(=O)(=O)N(Cc2ccccc2)c2ccccc2)cc1,19%,-2.18
c1ccc2c(c1)NC1(CCCC1)n1nnnc1-2,-3%,0.49
O=C(OC1CCOCC1)N1CC[C@@H](c2ccccc2F)S(=O)(=O)CC1,6%,-0.99
CCCC1(NC2CCN(c3ccc(N4CCCC4=O)cc3)CC2)CC1,-8%,1.15
C[C@@H](c1cnn(C)c1)n1cnc2ccc(Cl)cc2c1=O,-10%,1.79
CCn1cc(-c2ccc(OC)cc2)cc1C(=O)N1CCC(C)CC1,1%,-0.17
CCCc1nc(NCCCOC2CCCC2)no1,-18%,1.57
N#Cc1cccc(NC2CN(C(=O)[C@H]3CCS(=O)(=O)C3)C2)c1,-1%,0.16
Cc1nc(C(=O)NCCn2c(=O)[nH]c3ccsc3c2=O)cs1,-9%,1.75
CC[C@@]1(C)COCCN1C(=O)Cn1ccc(=O)[nH]c1=O,34%,-3.81
C#CC[C@H]1CCCN(c2nnnn2C[C@H]2C[C@@H](OC)C2)C1,-10%,1.26
Cn1cnn(CCC(=O)N(CC2CC2)c2ccccc2)c1=O,-11%,1.47
Cc1ccc(NC(=O)CC2=Nc3ccccc3S(=O)(=O)N2)cc1C,-5%,0.92

Compound,% Inhibition,Z score
CCOC(=O)C1=C(c2ccccc2)S/C(=C2/C(=S)C(C)(C)Nc3cc(C)c(C)cc32)S1,-17%,2.22
CCCCc1nc(-c2c(-c3ccccc3)ncn2CC[C@H]2CCCN2C)c[nH]1,1%,-0.18
COc1ccc(CCNCc2cc(Br)ccc2OCc2ccccn2)cc1OC,-5%,0.66
CCc1ccc(-c2nn(C)c(=O)c3c2CCCC3)cc1S(=O)(=O)N1CCN(c2ccccc2)CC1,-12%,1.9
CS(=O)(=O)N1CCC[C@@H]1CNc1nc2c(cc1C#N)CCC2,9%,-1.64
CC(C)(Cc1cnn[nH]1)C(=O)N1CCC2C(CCCN2C2CC2)C1 (stereo not drawn),-5%,1.03
Cn1c(-c2cccc(C(=O)Nc3ccc4c(c3)OCCO4)c2)nc2cccnc21,-17%,2.24
COc1ccc2c(c1)CCCN(C(=O)c1c[nH]c(=O)cc1C)C2,15%,-2
CC1CC1C(=O)Nc1n[nH]c2nc(C(F)(F)F)ccc12 (stereo not drawn),-4%,0.9
COc1cccc([C@@H]2NC(=O)NC3=Nc4ccccc4NC(c4ccccc4)=C32)c1OC,14%,-1.94
O=C(Cn1ccc([C@H]2CCCNC2)n1)NCc1noc(-c2ccccc2)n1,11%,-1.41
c1csc(-c2noc(CN3CCC[C@@H]3Cn3cncn3)n2)c1,-9%,1.28
O=C(NCCn1cccnc1=O)c1cncc(Br)c1,28%,-3.64
CCc1cc(N(C)CC2(C)COC2)nc(N(C)C)n1,11%,-1.92
Cc1ccc(N(C)S(=O)(=O)c2ccc(CC(=O)N3CCCCC3)s2)cc1,-4%,0.86
CCC(C)C(Nc1ncc(C(F)(F)F)cc1Cl)C(N)=O (stereo not drawn),-1%,0.13
CCn1nccc1CNc1cc(Cl)cc2c1OCC(=O)N2,0%,-0.01
CCn1cc2c(n1)c(=O)n(Cc1ccccc1)c(=O)n2CC(=O)Nc1ccccc1C(F)(F)F,0%,0.03
c1c(C2CC2)noc1CNCc1noc2c1CCCC2,-2%,0.23
CNC(=O)Cc1noc(C=Cc2ccco2)n1,-1%,0.12
Cc1nc(C(=O)N2C[C@H]3CC[C@@H](C2)N(Cc2c(C)noc2C)C3=O)cs1,3%,-0.47
